Reference: article PMC4336329 (PLoS ONE, 2015)
About 2,200 (0.71%) of roughly 310,000 compounds showed an effect of 50% or more. The effect is printed as a negative number. This is one part of the list.

Target: human ether-à-go-go-related gene (hERG) potassium channel (human, UniProt Q12809)
Assay: primary screen, population patch clamp on CHO cells stably expressing hERG

Chain of human ether-à-go-go-related gene (hERG) potassium channel (Q12809 whole entry, looked up): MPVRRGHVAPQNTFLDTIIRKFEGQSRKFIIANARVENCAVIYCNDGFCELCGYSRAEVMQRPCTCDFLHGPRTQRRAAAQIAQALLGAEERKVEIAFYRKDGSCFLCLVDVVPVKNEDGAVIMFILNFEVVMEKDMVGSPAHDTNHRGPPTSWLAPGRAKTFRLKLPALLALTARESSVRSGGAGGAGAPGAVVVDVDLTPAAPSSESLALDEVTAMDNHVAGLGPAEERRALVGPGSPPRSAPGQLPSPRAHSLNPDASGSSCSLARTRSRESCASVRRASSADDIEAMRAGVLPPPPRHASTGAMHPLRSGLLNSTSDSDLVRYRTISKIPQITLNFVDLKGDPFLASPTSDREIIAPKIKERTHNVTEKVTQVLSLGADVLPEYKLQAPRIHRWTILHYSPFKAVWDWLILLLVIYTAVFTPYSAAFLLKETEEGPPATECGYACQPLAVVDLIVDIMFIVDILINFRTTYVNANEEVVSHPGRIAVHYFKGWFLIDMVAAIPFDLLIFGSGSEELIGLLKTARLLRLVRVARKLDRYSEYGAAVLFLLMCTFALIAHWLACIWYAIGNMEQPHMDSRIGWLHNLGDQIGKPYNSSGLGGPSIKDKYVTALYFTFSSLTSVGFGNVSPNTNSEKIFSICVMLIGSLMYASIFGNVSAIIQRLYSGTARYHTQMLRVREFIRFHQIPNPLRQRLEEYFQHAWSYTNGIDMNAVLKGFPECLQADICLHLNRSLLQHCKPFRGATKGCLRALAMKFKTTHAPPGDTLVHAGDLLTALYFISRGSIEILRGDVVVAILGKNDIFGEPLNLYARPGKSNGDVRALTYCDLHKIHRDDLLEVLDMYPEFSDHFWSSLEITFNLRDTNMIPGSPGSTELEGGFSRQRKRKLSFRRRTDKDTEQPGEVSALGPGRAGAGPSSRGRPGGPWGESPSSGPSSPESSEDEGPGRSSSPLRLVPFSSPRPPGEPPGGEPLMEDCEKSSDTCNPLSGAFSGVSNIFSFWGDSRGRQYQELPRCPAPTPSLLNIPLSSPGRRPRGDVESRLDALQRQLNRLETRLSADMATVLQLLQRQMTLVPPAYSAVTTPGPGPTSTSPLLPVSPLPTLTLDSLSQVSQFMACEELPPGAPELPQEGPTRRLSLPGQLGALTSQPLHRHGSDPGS

First: CCOC(=O)c1nn(-c2ccccc2)c(C)c1C(C)=O
Second: COC(=O)c1c(NC(=O)CSc2ccccc2N)sc(C)c1C
The “hERG current change (%, negative = inhibition) at 1uM” value of the first is lower: 9.89% for the first, 12.3% for the second.

First: CCc1noc(C)c1C(=O)Nc1ccc(C)c(S(=O)(=O)N2CCCCCC2)c1
Second: Cc1c(C(=O)Nc2ccc(F)cc2)sc2ncn(CC(=O)N3CCCCC3)c(=O)c12
The “hERG current change (%, negative = inhibition) at 1uM” value of the first is lower: 8.12% for the first, 17.8% for the second.

Compared with `CO/N=C/C(=N\Nc1cc(OC)cc(OC)c1)C(=O)c1ccccc1`, `COc1cc(C(=O)N=C2SC3CS(=O)(=O)CC3N2c2ccccc2)cc(OC)c1OC` (centres unmarked) is higher in “hERG current change (%, negative = inhibition) at 1uM” value: 10.4% for the first, 12.6% for the second.

Compared with `CCOC(=O)c1ccc(NC(=O)NCc2ccccc2)cc1`, `CCOc1ccccc1NC(=O)CCCNC(=O)c1ccc(Cl)cc1` is higher in “hERG current change (%, negative = inhibition) at 1uM” value: 0.459% for the first, 12.7% for the second.

Going from `CNC(=O)c1nnn(Cc2ccccc2)c1NC(C)=O` to `CC(=O)c1sc(NC(=O)CCS(=O)(=O)c2ccccc2)nc1C`, the “hERG current change (%, negative = inhibition) at 1uM” value falls from 12.5% to 9.46%.

First: O=C1CCCC(=NCc2ccco2)C1
Second: O=C(CCN1N=C(c2ccccc2)CCC1=O)NC1CCCC1
The “hERG current change (%, negative = inhibition) at 1uM” value of the first is lower: 2.32% for the first, 20.4% for the second.

Compared with `CCc1cc(C(=O)OC)c(NC(=O)c2cc(Br)cs2)s1`, `CCOC(=O)c1c(-c2ccc(OC)cc2)csc1NC(=O)CCN1CCOCC1` is higher in “hERG current change (%, negative = inhibition) at 1uM” value: 0.713% for the first, 4.98% for the second.

Compared with `CC(Oc1ccccc1)C(=O)N1CCC2(CC1)Oc1ccc(F)cc1C(=O)C21CC(c2ccc(Cl)cc2)=NO1` (centres unmarked), `Cc1nn(-c2ccccc2)c2nc(N)c(C#N)c(-c3ccc(F)cc3)c12` is higher in “hERG current change (%, negative = inhibition) at 1uM” value: 10.4% for the first, 17% for the second.

First: COC(=O)c1nc(-c2ccc(C)cc2)oc1N(C)C
Second: CCOC(=O)c1sc(=S)n(-c2ccc(C)cc2)c1SC
The “hERG current change (%, negative = inhibition) at 1uM” value of the first is lower: 4.87% for the first, 13.1% for the second.

First: CCCCc1nnc(NC(=O)Cc2ccc(S(=O)(=O)N3CCOCC3)s2)s1
Second: CC(NC(=O)c1cc(S(=O)(=O)N2CCOCC2)cn1C)c1ccccc1 (centres unmarked)
The “hERG current change (%, negative = inhibition) at 1uM” value of the first is higher: 11.9% for the first, 5.72% for the second.

Compared with `Nc1ccc(C(=O)Nc2cccc(NC(=O)c3ccc(N)cc3)c2)cc1`, `O=C(O)c1ccc(NC(=O)c2cn(-c3ccccc3)nc2-c2ccccc2)cc1` is higher in “hERG current change (%, negative = inhibition) at 1uM” value: 13.5% for the first, 16.4% for the second.

Compared with `O=C(CCc1nc2ccccc2c(=O)[nH]1)OCC(=O)c1cccc(Cl)c1`, `O=C(O)c1cc(N/N=C/c2c[nH]c3ccccc23)ccc1Cl` is higher in “hERG current change (%, negative = inhibition) at 1uM” value: 9.52% for the first, 12.5% for the second.

Going from `COc1ccc(/C=C/C(=O)Oc2cccc(/C=N/NC(=O)Cc3ccc(Br)cc3)c2)cc1` to `N/C(Cc1ccc([N+](=O)[O-])cc1)=N\OC(=O)c1ccc(Br)cc1`, the “hERG current change (%, negative = inhibition) at 1uM” value falls from 6.97% to -3.44%.

Compared with `CC(Oc1ccc(Br)cc1Br)C(=O)NC1CCCC1` (centres unmarked), `COC(=O)c1ccc(N(CC(=O)NC2CCCC2)C(=O)c2ccc(C)s2)cc1` is higher in “hERG current change (%, negative = inhibition) at 1uM” value: 7.36% for the first, 14.1% for the second.

First: Cc1c(NC(=O)CC(O)(C(F)(F)F)C(F)(F)F)c(=O)n(-c2ccccc2)n1C
Second: Cc1c(NS(=O)(=O)c2cc(NC(=O)CCN3CCCC(C)C3)ccc2Cl)c(=O)n(-c2ccccc2)n1C (centres unmarked)
The “hERG current change (%, negative = inhibition) at 1uM” value of the first is higher: 12.9% for the first, 11.9% for the second.

Going from `COC(=O)C1=C(c2ccccc2OCc2ccccc2)C[C@@H]2CC[C@H]1N2C(=O)NCc1ccc(C(C)(C)C)cc1` to `COC(=O)C1=C(c2ccc(C(C)=O)cc2)C[C@@H]2CC[C@H]1N2C(=O)NC1CCCCC1`, the “hERG current change (%, negative = inhibition) at 1uM” value falls from 12.8% to -8.6%.

First: CN1CCc2c(sc(NC(=O)C3CCCCC3)c2C(N)=O)C1.Cl
Second: Cc1c(Br)c([N+](=O)[O-])nn1CCCC(=O)Nc1sc2c(c1C(N)=O)CCC(C)C2 (centres unmarked)
The “hERG current change (%, negative = inhibition) at 1uM” value of the first is higher: 7.86% for the first, -2.92% for the second.

Going from `O=C(Cc1ccccc1F)c1ccc(O)cc1O` to `CN(C)c1ccc(/C=N/NC(=O)c2ccccc2O)o1`, the “hERG current change (%, negative = inhibition) at 1uM” value rises from 13.9% to 15.7%.

First: Cc1csc(=O)n1CC(=O)OCC(=O)c1c(N)n(CC(C)C)c(=O)n(C)c1=O
Second: COCCNc1nc2c(c(=O)n(Cc3cccc(Cl)c3)c(=O)n2C)n1C
The “hERG current change (%, negative = inhibition) at 1uM” value of the first is lower: 9.7% for the first, 9.77% for the second.

First: O=S(=O)(Nc1ccc(F)cc1Cl)c1ccc(-c2cnc(C3CC3)o2)cc1
Second: Cn1c(CCN2CCCC2)nc2cc(NS(=O)(=O)c3ccc(Cl)cc3)ccc21
The “hERG current change (%, negative = inhibition) at 1uM” value of the first is higher: 9.47% for the first, -62% for the second.

Going from `COc1cc(-c2ccc(N)c(OC)c2)ccc1N` to `COc1ccc(S(=O)(=O)Nc2ccc3c(c2)N(C(C)=O)CCC3)cc1OC`, the “hERG current change (%, negative = inhibition) at 1uM” value rises from 6.99% to 17.3%.

Compared with `CC(Sc1nnc2ccccn12)C(=O)N1CCc2ccccc2C1` (centres unmarked), `Cc1c(C(=O)N2CCc3ccccc3C2)oc2ccccc12` is lower in “hERG current change (%, negative = inhibition) at 1uM” value: 6.67% for the first, -1.86% for the second.

Going from `CN(C)C(CNC(=O)CNC(=O)Cc1cccc2ccccc12)c1ccccc1` (centres unmarked) to `O=C(CCc1ccccc1)NNC(=O)COc1ccccc1`, the “hERG current change (%, negative = inhibition) at 1uM” value rises from 1.34% to 4.06%.

Compared with `CCOC(=O)CCC(=O)O[C@H]1[C@H](O[C@@H]2[C@@H](C)[C@H](O[C@H]3C[C@@](C)(OC)[C@@H](O)[C@H](C)O3)[C@@H](C)C(=O)O[C@H](CC)[C@@](C)(O)[C@H](O)[C@@H](C)C(=O)[C@H](C)C[C@@]2(C)O)O[C@H](C)C[C@@H]1N(C)C`, `Cc1c(CC(=O)NCCCC(=O)O)c(=O)oc2cc3c(cc12)CCC(C)(C)O3` is higher in “hERG current change (%, negative = inhibition) at 1uM” value: 3.84% for the first, 6.03% for the second.

First: CCOc1ccc2nc(N/C(N)=N/C(=S)Nc3cccc(C)c3)nc(C)c2c1
Second: CC1=C(C(=O)Nc2ccc(C)cc2C)C(c2ccc(C)o2)NC(=S)N1 (centres unmarked)
The “hERG current change (%, negative = inhibition) at 1uM” value of the first is lower: 0.992% for the first, 3.15% for the second.

Going from `Cc1ccc(-c2nc(CN3CCCCC3c3cccc(F)c3)c(C)o2)o1` (centres unmarked) to `O=C1c2ccccc2-c2ccc(C(=O)N3CCCCC3)cc21`, the “hERG current change (%, negative = inhibition) at 1uM” value falls from 25.8% to 1.92%.

First: O=C(CCCNC(=O)c1ccc(Cl)cc1)NCc1ccc(F)cc1
Second: CC(NC(=O)CCCc1c[nH]c2ccccc12)c1ccc(F)cc1 (centres unmarked)
The “hERG current change (%, negative = inhibition) at 1uM” value of the first is lower: 8.23% for the first, 14.1% for the second.

First: CS(=O)(=O)c1nc([N+](=O)[O-])nn1CCCc1ccccc1
Second: O=C(O)CCn1cc(/C=N/O)c(-c2cccc([N+](=O)[O-])c2)n1
The “hERG current change (%, negative = inhibition) at 1uM” value of the first is higher: 14.2% for the first, 13.6% for the second.

First: O=C(CN1CCOCC1)Nc1cccc(Br)c1
Second: Clc1ccc(-n2nnnc2CN2CCOCC2)cc1
The “hERG current change (%, negative = inhibition) at 1uM” value of the first is lower: 0.83% for the first, 4.32% for the second.

Going from `CCN(C(=O)COC(=O)c1cc(OC)c(OC)cc1[N+](=O)[O-])C1CCS(=O)(=O)C1` (centres unmarked) to `COc1ccc(C)cc1NC(=O)C1CCN(S(=O)(=O)c2ccc3c(c2)NC(=O)CO3)CC1`, the “hERG current change (%, negative = inhibition) at 1uM” value rises from 10.9% to 11.3%.

Going from `C/C(=N\Nc1ccccn1)c1ccc(S(=O)(=O)NCc2ccco2)cc1` to `Cc1ccc(N(CC(=O)NCc2ccco2)S(=O)(=O)c2ccccc2)cc1`, the “hERG current change (%, negative = inhibition) at 1uM” value falls from 14.7% to 5.16%.

Going from `CCN1CCCc2cc(CN(CCN3CCOCC3)C(=S)Nc3cccc(Cl)c3)ccc21` to `O=S(=O)(CCN1CCN(c2ccccn2)CC1)c1ccc(Cl)cc1Cl`, the “hERG current change (%, negative = inhibition) at 1uM” value falls from 8.35% to -3.62%.

Compared with `Cc1sc2nc(SCC(=O)Nc3ccc(S(N)(=O)=O)cc3)[nH]c(=O)c2c1C`, `CCC(=O)Nc1ccc(S(=O)(=O)Nc2ncccn2)cc1` is higher in “hERG current change (%, negative = inhibition) at 1uM” value: 6.87% for the first, 20.2% for the second.

Compared with `O=CO.c1ccc2c(c1)CSc1sccc1C2=C1CCNCC1`, `O=C(N/N=C/c1c(O)n(CCC2=CCCCC2)c(=S)[nH]c1=O)c1ccccc1` is higher in “hERG current change (%, negative = inhibition) at 1uM” value: 9.68% for the first, 12.6% for the second.

First: O=C(NCCCNCc1ccccc1)/C(=N\O)c1ccccc1
Second: CCCCCOc1ccc(CSCCNC(=S)Nc2ccccc2)cc1
The “hERG current change (%, negative = inhibition) at 1uM” value of the first is lower: 4.17% for the first, 8.49% for the second.

Compared with `CC(C)Sc1nc2c(c(=O)[nH]c(=O)n2C)n1CC(O)COc1ccccc1` (centres unmarked), `Cc1ccc(-c2nn3cnnc3c3ccccc23)cc1C` is lower in “hERG current change (%, negative = inhibition) at 1uM” value: 13.3% for the first, 5.36% for the second.

First: CCCc1nc2oc3c(NCC(C)O)ncnc3c2c2c1CCCC2 (centres unmarked)
Second: COc1ccc(S(=O)(=O)NCC(c2ccco2)N2CCc3ccccc3C2)cc1 (centres unmarked)
The “hERG current change (%, negative = inhibition) at 1uM” value of the first is lower: 9.22% for the first, 10.1% for the second.

Compared with `COc1ccccc1C1OC2=C(Nc3ccc([N+](=O)[O-])cc3N2)C1=O` (centres unmarked), `Cc1c(NC(=O)Nc2ccc3c(c2)OCO3)cccc1[N+](=O)[O-]` is higher in “hERG current change (%, negative = inhibition) at 1uM” value: 13% for the first, 13.2% for the second.

Going from `O=C(Oc1ccc(C(=S)N2CCOCC2)cc1)c1cc([N+](=O)[O-])cc([N+](=O)[O-])c1` to `COc1ccc(C2=NS(=O)(=O)N(C)C(C(=O)NCc3ccc4c(c3)OCO4)=C2)cc1`, the “hERG current change (%, negative = inhibition) at 1uM” value falls from 3.18% to -8.71%.

Compared with `CN(C)C(=O)NC(Nc1cccc([N+](=O)[O-])c1)C(Cl)(Cl)Cl` (centres unmarked), `CCOc1ccc2c(c1)s/c(=N\S(=O)(=O)c1ccc(OC)cc1)n2C(F)F` is higher in “hERG current change (%, negative = inhibition) at 1uM” value: 4.79% for the first, 5.16% for the second.

First: C#CCOCCOCCOCCNc1nc(N2CCN(C(=O)[C@H](CCC(=O)O)n3cc(C(N)CC(C)C)nn3)CC2)nc(N2CCN(C(=O)[C@H](CCC(=O)O)n3cc(C(N)CC(C)C)nn3)CC2)n1.Cl (some centres unmarked)
Second: CCOc1ccccc1N1CCN(C(=S)NC(=O)C23CC4CC(CC(C4)C2)C3)CC1
The “hERG current change (%, negative = inhibition) at 1uM” value of the first is higher: 17.2% for the first, 1.79% for the second.

In the case of `O=c1c2c(nc3n1CCS3)c1cc(F)ccc1n2Cc1cc(=O)n2cc(Cl)ccc2n1`, the “hERG current change (%, negative = inhibition) at 1uM” value is reported as 10.3%.
